Among all 150,000 compounds or so, about 540 (0.36%) showed an effect of 50% or more. This is one part of the list.
system: Plasmodium falciparum; assay: Primary screen in NF54 nanoGlo assay, in single point, at 2uM, 72h; a lower Z score goes with more inhibition; assay type: functional, Erythrocyte; settings: timepoint 72 hour

Row | Compound | % Inhibition [%] | Z score
1 | CCN(CC)S(=O)(=O)c1cc(C(=O)NCc2ccc3c(c2)OCO3)n(C)c1 | 3 | -0.46
2 | COc1ccc(C)cc1NC(=O)Cn1nc(C(=O)N2CCc3ccccc32)ccc1=O | -3 | 0.35
3 | O=c1c(NCc2ccccc2)nccn1-c1ccc2c(c1)OCCO2 | -11 | 1.22
4 | CO[C@@]1(C)C[C@@H](O)C12CCN(C(=O)Cc1csc(C)n1)CC2 | -11 | 1.41
5 | Cn1cc(Br)cc1C(=O)N[C@H]1CC[C@H](CO)CC1 | 23 | -2.57
6 | COc1ccc(-c2n[nH]cc2CN2CCc3nc[nH]c(=O)c3CC2)cc1OC | 11 | -2.04
7 | CCOC(=O)CCC(=O)N1CCN([C@H](C(=O)N(CC)CC)C2CCCC2)CC1 | -4 | 0.48
8 | COC(C)(C)C(=O)Nc1ccc(C)cc1F | -3 | 0.42
9 | O=C(Cc1ccccc1F)NCc1cc2n(n1)CCN(C1CCCCC1)C2 | 4 | -0.6
10 | Cc1ccc(Cn2c(=O)c(N3CCC[C@H](C(=O)NCc4ccccc4F)C3)nc3ccccc32)cc1 | 39 | -1.15
11 | Cc1c(C(=O)N2CCN(c3ccccc3F)CC2)cccc1N(C)S(C)(=O)=O | -9 | 1.78
12 | Cn1nc2cccc(S(=O)(=O)N[C@H]3CCS(=O)(=O)C3)c2n1 | -6 | 0.73
13 | O=C(OCCNC1=NS(=O)(=O)c2ccccc21)c1ccc(F)cc1 | -8 | 1.03
14 | C[C@@H](C(=O)N(C)CCCOc1ccc(Cl)cc1)N1C(=O)NC2(CCCC2)C1=O | -6 | 0.78
15 | O=C(NCc1cccc2[nH]ccc12)[C@H]1CCS(=O)(=O)C1 | -12 | 1.34
16 | COC[C@H](Cc1ccccc1)N(C)S(=O)(=O)C1CC1 | -12 | 1.63
17 | O=C(NC1CCN(c2cnsn2)CC1)c1cc(Br)ccc1Cl | -12 | 1.52
18 | CN(C)S(=O)(=O)NCc1ccnc(-c2ccsc2)c1 | -13 | 1.45
19 | Cc1cccc(-c2nc3nc(C)c(CC(=O)N(C)Cc4ccccc4)c(C)n3n2)c1 | -5 | 0.6
20 | CC[C@H]1CC[C@H](C(=O)N2CC[C@@](O)(C(N)=O)C2)CC1 | -9 | 0.95
21 | O=C(NCC1CCN(Cc2nc(-c3ccccc3)cs2)CC1)[C@H]1CCCO1 | -7 | 1.15

Row | Compound | % Inhibition [%] | Z score
22 | O=C(C[C@@H]1C=CCC1)NCC1(CO)CCCC1 | -8 | 1.05
23 | Cc1ccc(C(=O)N2CCC3(CC[C@@H]3OCC(N)=O)CC2)nc1 | -5 | 0.61
24 | Cc1cnccc1-n1cc(-c2cc(C(=O)N3CCCC3)c3ccccc3n2)cn1 | -1 | 0.27
25 | COCCn1ccc2c(OCC(=O)Nc3cccc(C(=O)N4CCNC(=O)C4)c3)cccc21 | -7 | 0.81
26 | CCn1ncc(CNC(=O)c2cnc(-c3cccc(C)c3)nc2O)c1C | -1 | 0.12
27 | Cc1ccc(C(=O)N2CC[C@H](N3CCN(C)CC3)[C@H](CCC(=O)O)C2)c(O)c1 | 2 | -0.26
28 | Cc1ccc(/C(=N/c2sc(-c3ccccc3)nc2-c2ccccc2)N2CCC[C@H](C)C2)cc1 | -8 | 1
29 | C[C@]1(CNCCn2cc(Br)cn2)CCCCO1 | -2 | 0.46
30 | CC1(c2ccccc2C(=O)NC[C@H]2CCCO[C@@H]2c2cn[nH]c2)CC1 | -6 | 0.76
31 | CCOc1ccccc1NC(=O)[C@H]1CCCN(c2ccc3cc(S(=O)(=O)N4CCCCC4)ccc3n2)C1 | -11 | 1.31
32 | COC(=O)c1cnoc1CN[C@H](C)c1ccc(Cl)cc1Cl | -5 | 0.55
33 | C[C@@H](CO)N(C)S(=O)(=O)c1ccc(F)c(Br)c1F | -5 | 0.95
34 | COc1ccsc1C(=O)N(CCN(C)C)Cc1cccnc1 | -1 | 0.18
35 | Cc1cc(CC(=O)N[C@@H](C)c2nc(-c3cccnc3)cs2)no1 | -5 | 0.5
36 | NC[C@H]1CC(Cc2cccc(F)c2)=NO1 | -6 | 1.1
37 | Cn1cnc2cc(C(=O)NCc3csc(N)n3)ccc2c1=O | -10 | 1.66
38 | O=C(c1nc2ccccn2c1-c1ncc[nH]1)N1CCN(C2CCCCC2)CC1 | -13 | 1.73
39 | Cc1cc(C(=O)NCc2noc(C(N)=O)n2)cc(C)n1 | -15 | 1.6
40 | Cc1cc(C)n(-c2nnc(Nc3ccc(C)c(Cl)c3)c3ccccc23)n1 | -4 | 0.64
41 | COc1cccc(CN2C(=O)c3cc4ccc(OC)cc4n3C[C@@]2(C)C(=O)NC2CCCCCC2)c1 | -12 | 1.58
42 | CC(C)Oc1cccc2c1c(NC(=O)CN1CCOC1=O)nn2Cc1ccccc1 | -13 | 2.47

Row | Compound | % Inhibition [%] | Z score
43 | Cc1nonc1CNC(=O)[C@]1(C)CCCCO1 | -9 | 1.11
44 | Cc1cc(CC(=O)N2CCO[C@H](c3ccccc3)C2)on1 | -18 | 2.27
45 | C[C@H]1c2nnc(C3CCCC3)n2CCN1C(=O)c1cncc(O)c1 | -6 | 1
46 | COc1cc(N2CCC(Oc3cccc(F)c3)(C(=O)O)CC2)ncn1 | -10 | 2.02
47 | Cn1cnnc1[C@@H]1CCCN1Cc1c[nH]nc1-c1cccs1 | 5 | -0.52
48 | COCCn1c(N)c(N(Cc2ccccc2)C(=O)COc2cccc(C)c2)c(=O)[nH]c1=O | -9 | 1.32
49 | CC(C)(C)CN1C[C@@H](NC(=O)COc2ccc3c(c2)OCO3)CC1=O | -1 | 0.23
50 | N#Cc1c([C@H]2CCOC2)cc(-c2ccc(F)cc2C(F)(F)F)nc1N | 0 | -0.06
51 | CC(C)C[C@H]1C[C@@H](NC(=O)c2ccccc2)C[C@@H](c2cccnc2)O1 | -14 | 1.31
52 | CCn1ccc(C(=O)N2CC(F)(F)C[C@H]2COc2ccc3c(c2)CCC3)n1 | -10 | 1.77
53 | CCc1nnc2n1CCN(CCC(=O)N1CCCCC1)C2 | -4 | 0.58
54 | COc1ccc(NC(=O)[C@H]2C[C@H](Cc3ccccc3)N[C@]23C(=O)Nc2ccccc23)cc1 | -15 | 1.91
55 | CC(C)[C@H](C)N(Cc1ccc(Cl)cc1)Cc1nc(C(=O)NCCc2ccccn2)co1 | -15 | 1.84
56 | Cc1nn(C)c(NC(=O)c2cc(C3CC3)nc3ccccc23)c1C | 9 | -1.17
57 | CNC(=O)c1nc(-c2ccccc2)n2c1CCN(C(=O)CC1CC1)CC2 | 6 | -0.65
58 | Cc1nc(C(C)C)ncc1C(=O)N1CCC(Oc2cccc(F)c2)CC1 | -6 | 0.73
59 | O=C([C@H](Cc1ccccc1)NC1Cc2ccccc2C1)N1CCOCC1 | -12 | 1.71
60 | O=C(NCCN1CCN(c2ccccc2)CC1)N[C@H]1CC(=O)N(c2cccc(F)c2)C1 | 30 | -3.79
61 | Cc1ccc(CN(C)C(=O)Nc2ccc3c(c2)CCC3)nc1 | -1 | 0.14
62 | O=C(C[C@@H]1COC2(C1)CN(S(=O)(=O)c1ccc(Cl)s1)C2)N1CCOCC1 | -5 | 0.83
63 | Cc1ccc2c(n1)N(C)[C@H](CO)CCN(Cc1ccc3c(c1)OCO3)C2 | 1 | -0.18

Row | Compound | % Inhibition [%] | Z score
64 | Cc1[nH]nc(O)c1[C@@H](CC(N)=O)c1ccco1 | -7 | 1.03
65 | Cc1noc(C)c1C(=O)N1CCc2nn(C)c(=O)n2CC1 | -8 | 1.53
66 | Cc1nc(C(C)C)nc(NCCNC(=O)N(C)C)c1Br | -1 | 0.1
67 | CCN1CCN(CCCN2CC3(CCN(c4ccnc(C)n4)CC3)OC2=O)CC1 | -9 | 1.72
68 | O=C(NCc1ccco1)N1CCC[C@H]1c1ccc2c(c1)OCCO2 | 1 | -0.25
69 | Cc1nnc2ncc(-c3ccc(OC(C)C)cc3)cn12 | 6 | -0.89
70 | COc1cccc(NC(=O)Nc2c(-c3ccncc3)[nH]c3c(Cl)cccc23)c1 | -2 | 0.37
71 | OC[C@]12CN(Cc3ccncc3F)CC[C@H]1CN(Cc1ccccc1)C2 | -6 | 0.81
72 | CCN(Cc1ccccc1)c1ccc(NC(=O)c2ccc(Br)cc2)cc1C(=O)O | 0 | -0.06
73 | CCc1ccc(-c2cc(C(F)(F)F)on2)cc1S(=O)(=O)Nc1cccc(C)c1C | -1 | 0.11
74 | Cc1nc2cc(CNC(=O)[C@H]3CCc4cn[nH]c4C3)ccc2n1C1CC1 | -19 | 2.6
75 | Cc1ccc(S(=O)(=O)N2C3CCC2CC(N2C(=O)CCC2=O)C3)s1 (centres undefined) | -5 | 0.81
76 | O=S(=O)(CCCCF)Nc1cc(C(F)(F)F)c(F)cc1O | -6 | 0.92
77 | CCC[C@H](C)NS(=O)(=O)c1cccc(F)c1 | 4 | -0.51
78 | C[C@@H](C(=O)Nc1ccc2c(c1)C(=O)N(CC1CC1)C2=O)n1ccnc1 | 1 | -0.08
79 | O=C(CC[C@H]1CCCOC1)Nc1ccc(-c2ccccc2)cn1 | -6 | 1.17
80 | Cn1nc(CCNC(=O)N[C@H]2CC[C@H](CO)CC2)c2ccccc21 | -14 | 1.39
81 | Cc1cnccc1OC1CCN(C(=O)[C@@H](C)Cc2c(C)nn(C)c2C)CC1 | -8 | 1.17
82 | CCOc1ccc(CN[C@H]2CS(=O)(=O)C[C@@H]2O)cc1F | -3 | 0.61

Source: ChEMBL document CHEMBL4888484, “Replenishing the malaria drug discovery pipeline: Screening and hit evaluation of the MMV Hit Generation Library 1 (HGL1) against asexual blood stage Plasmodium falciparum ,using a nano luciferase reporter read-out” (2022)
